Our source for the viability, T/C values is PubChem BioAssay AID1963974 (Molecular Pharmacology Branch, DTP, NCI, 2024).

Broadly, the viability, T/C is the ratio of treated to control.

The test system of this assay is 648629-189-R-J1-PDC spheroids with HUVEC/MSC, viability. The assay can be described thus: Anticancer human tumor 648629-189-R-J1-PDC patient-derived bladder carcinoma cell line growth inhibition [PI3K]. The conditions noted are these: stronger effect = lower value. The text has this:
Combinatorial screen of targeted agents with the PI3K inhibitors inavolisib, alpelisib, duvelisib, and copanlisib in multi-cell type tumor spheroids
A high-throughput screen of multi-cell type tumor spheroids was designed to identify active combinations of targeted small molecules and PI3K pathway inhibitors. Complex spheroids include a stromal component modeled by human endothelial cells (HUVEC) and fibroblasts modeled by human mesenchymal stem cells (MSCs). The concentration ranges selected for each drug and investigational agent were based upon clinically achievable concentrations if the clinical Cmax of the agent was known.
Compounds. The drugs and investigational agents: inavolisib (NSC800729), alpelisib (NSC765974), duvelisib (NSC772469), copanlisib (NSC816437), ipatasertib (NSC767898), afuresertib (NSC778305), talazoparib (NSC767125), sapanisertib (NSC764658), selumetinib (NSC741078), tovorafenib (DAY101, NSC766906), vemurafenib (NSC761431), ravoxertinib (NSC781343), sotorasib (NSC818433), MRTX1133 (NSC 836407), abemaciclib (NSC 768073), palbociclib (NSC758247), venetoclax (NSC 766270), SY5609 (NSC837396), enzalutamide (NSC755605), and darolutamide (NSC825331), were obtained from the National Cancer Institute (NCI) Developmental Therapeutics Program Chemical Repository. The FDA-approved anticancer drug set is available from the NCI Developmental Therapeutics Program. […] The stock solutions were prepared in dimethyl sulfoxide (DMSO, Sigma-Aldrich, St. Louis, MO, cat. D2650) at 800-fold the tested concentration and stored at -70 degrees C prior to their use. All drugs and investigational agents were tested over a range starting from a high concentration at or near the clinical Cmax and decreasing in half-log increments. If the clinical Cmax for an agent had not been determined, the highest concentration tested was 10 microM.
Cell Culture. All cells were maintained in an incubator at 37 degrees C and 5% CO2 with 95% humidity. The PDC lines were cultured according to standard operating procedures established by the NCI PDMR (https://pdmr.cancer.gov/sops/default.htm). All PDCs were thawed and cultured in Matrigel-coated flasks prepared with a working solution of 1X Ham's F-12 nutrient mix, without supplementation (Invitrogen, Waltham, MA, cat. 11765054), 100 U/mL penicillin-streptomycin (Invitrogen, cat. 15140122), and 2.5% Matrigel (Corning Inc., Corning, NY, cat. 354248) for the first three passages. […]

Not every entry of the source has a single result; some have several. The other results are left out here. An entry can have further records. Results that share an entry are repeated measurements (runs, samples, wells, individuals or studies).
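Further: spheroids exposed to agents for seven days before reading; percent of vehicle control luminescence where 100% = DMSO treated spheroids.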

As for `Cn1ncc(Cl)c1-c1cc(C(=O)NC(CN)Cc2cccc(F)c2)sc1Cl` (centres undefined), the viability, T/C (compound alone 10 µM) is reported as 3.77, 98.5, 11.1, 6.71%. For the molecule `CC1(C)CCC(CN2CCN(c3ccc(C(=O)NS(=O)(=O)c4ccc(NCC5CCOCC5)c([N+](=O)[O-])c4)c(Oc4cnc5[nH]ccc5c4)c3)CC2)=C(c2ccc(Cl)cc2)C1`, where the note is “compound alone 10 µM”, the viability, T/C was 10.6, 7.77, 68.4, 107%. Turning to `CC(C)NCC(C(=O)N1CCN(c2ncnc3c2C(C)CC3O)CC1)c1ccc(Cl)cc1` (centres undefined), the viability, T/C (compound alone 0.1 µM) is 98.2, 103, 88, 72.6%. As for `C#Cc1c(F)ccc2cc(O)cc(-c3ncc4c(N5CC6CCC(C5)N6)nc(OCC56CCCN5CC(F)C6)nc4c3F)c12` (centres undefined), the viability, T/C (compound alone 0.1 µM) was 109, 94.7, 92.8, 119%.
